# Experimental data as given in PubChem BioAssay AID488969 (Vanderbilt High Throughput Screening Facility, 2010).
# Whole data set: some 110,000 compounds, median “z-score” near -0.1, cut for the highest 2% near 2. The list shows a part of the results. Calls of active or inactive are those of the source.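 Rule for the calls: active = z-score in the third read window above 3 or below -3; inactive = the rest.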
# Target: Metabotropic glutamate receptor 8 (Rattus norvegicus) (UniProt P70579)
# Assay: mGluR8 Gi/Go-coupled signaling modulation – cell-based, rat, thallium flux, HTS, primary screen (AID 488969)
# Conditions: HEK293 rat mGluR8, GIRK (G protein-gated inwardly rectifying potassium channel) thallium flux, FluoZin2; at 10 µM; stronger effect = higher value; submaximal glutamate (EC20) added with thallium
# Sequence of UniProt P70579 (P70579 whole entry, looked up): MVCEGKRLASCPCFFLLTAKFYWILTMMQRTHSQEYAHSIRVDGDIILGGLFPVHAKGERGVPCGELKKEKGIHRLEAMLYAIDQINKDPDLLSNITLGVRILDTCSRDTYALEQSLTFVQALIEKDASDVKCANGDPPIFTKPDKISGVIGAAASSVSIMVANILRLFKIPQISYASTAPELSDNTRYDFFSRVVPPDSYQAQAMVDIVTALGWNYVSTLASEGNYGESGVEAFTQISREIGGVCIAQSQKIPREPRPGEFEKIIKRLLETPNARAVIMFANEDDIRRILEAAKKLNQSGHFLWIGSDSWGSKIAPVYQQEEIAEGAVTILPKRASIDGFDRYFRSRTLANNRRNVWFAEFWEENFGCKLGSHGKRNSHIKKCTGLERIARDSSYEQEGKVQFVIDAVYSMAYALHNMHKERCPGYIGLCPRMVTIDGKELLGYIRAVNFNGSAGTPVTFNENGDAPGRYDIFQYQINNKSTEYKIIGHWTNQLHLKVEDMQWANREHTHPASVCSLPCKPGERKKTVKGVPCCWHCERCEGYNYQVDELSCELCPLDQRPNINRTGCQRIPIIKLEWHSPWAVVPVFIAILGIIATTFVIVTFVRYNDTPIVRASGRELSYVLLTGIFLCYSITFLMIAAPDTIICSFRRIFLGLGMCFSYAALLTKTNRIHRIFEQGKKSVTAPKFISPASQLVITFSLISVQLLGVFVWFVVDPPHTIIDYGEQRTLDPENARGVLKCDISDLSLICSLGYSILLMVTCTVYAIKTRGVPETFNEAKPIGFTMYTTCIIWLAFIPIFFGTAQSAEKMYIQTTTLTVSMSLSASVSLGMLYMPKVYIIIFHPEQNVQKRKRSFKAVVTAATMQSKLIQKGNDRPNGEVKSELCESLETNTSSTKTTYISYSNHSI
row,Structure (SMILES),z-score
1,O=S(=O)(c1ccc(F)cc1)c1nc(-c2ccccc2F)oc1N1CCCCC1,-0.159
2,O=C(c1ccco1)N1CCN(C(=O)c2cc3c(=O)oc4ccccc4c3s2)CC1,-1.26
3,CCCCOc1cccc(NC(=O)CSc2nncn2C)c1,0.36
4,COC(=O)c1ccccc1NC(=O)CSc1nnc(-c2cccnc2)n1C,-0.377
5,O=C(CSc1nc2ccccc2[nH]1)c1ccc2c(c1)OCO2,-0.256
6,Cc1nn(Cc2ccccc2)c(C)c1NC(=O)c1cc(-c2ccc3c(c2)OCO3)on1,1.38
7,COC(=O)C(CC(C)C)Oc1ccc2c(C)cc(=O)oc2c1 (configuration not stated),-2.99
8,CCCc1cc(=O)[nH]c(SCC(=O)N2CCN(S(=O)(=O)c3ccccc3)CC2)n1,-0.33
9,O=C(CSc1nnc2scc(-c3ccccc3)n12)c1ccc2c(c1)OCCO2,-0.0592
10,Cc1cc(C)nc(N2CCN(c3nc(C)cc(C)n3)CC2)n1,-0.0337
11,O=C(O)CCc1nn2c3ccccc3nc2n(-c2ccccc2)c1=O,-0.197
12,CCC(=NC(C)c1ccccc1)c1c(O)n(C)c(=O)n(C)c1=O (configuration not stated),0.266
13,O=C1C(Cl)=C(N2CCOCC2)C(=O)N1c1cccc(Cl)c1,active: 13.9
14,CCOc1ccc(-c2csc(N)c2C(=O)OC)cc1,-0.446
15,O=C(CCNS(=O)(=O)c1cccs1)Nc1ccccc1F,-0.363
16,O=C(CN(c1ccc(F)cc1)S(=O)(=O)c1ccc2c(c1)OCCO2)NCc1ccccc1,-0.0832
17,CCC(C)[C@H](NC(=O)NCc1ccccc1Cl)C(=O)O (some centres not stated),0.754
18,COc1ccc2nc(NC(=O)CSc3nc4ccccc4o3)sc2c1,0.153
19,Cc1ccc(C(C)C)c(OCCNS(C)(=O)=O)c1,-0.0382
20,C=C(C)CN(CC)C(=O)COc1ccc(S(=O)(=O)Nc2ccc(OC)cc2)cc1,-0.206
21,O=C1C=C(c2ccccc2)OC(=O)C1C(=O)c1ccccc1 (configuration not stated),0.868
22,COc1ccc(C(NC(=O)c2ccco2)c2ccc(OC)c(OC)c2)cc1OC,1.06
23,Cc1ccc(OCC(=O)NCc2ccccc2)c([N+](=O)[O-])n1,-0.0786

row,Structure (SMILES),z-score
1,CN1CCN(Cc2cc(Cl)c3cccnc3c2OC(=O)c2cccs2)CC1,0.273
2,CC1Cc2ccccc2N1C(=O)c1ccc(N2CCCCC2)c([N+](=O)[O-])c1 (configuration not stated),-0.482
3,Cc1ccc(C2=Nc3ccccc3N=C(c3ccc([N+](=O)[O-])cc3)C2)c(O)c1,-0.0727
4,COc1ccc(OCC(=O)Sc2ccc(C)cc2)cc1,-0.219
5,CC1(C)C(=O)C2(CCCC2)C(=O)OC1c1ccco1 (configuration not stated),-0.274
6,Cc1cccc(C)c1NC(=O)C(c1ccc(Cl)cc1Cl)N1CCCCC1 (configuration not stated),-0.158
7,c1ccc(CSc2nnc([C@@H]3CCCN3)o2)cc1,0.838
8,CCOc1ccc(NS(=O)(=O)c2cc(NC(=O)c3ccc(C)cc3)ccc2Cl)cc1,-0.0084
9,CSc1nc(N2CCOCC2)c2c3c(sc2n1)CCCC3,-2.05
10,O=C(CN1CCN(c2ccccc2O)CC1)NC(=O)NCc1ccco1,-0.163
11,CCC(C(=O)Nc1cc(C(=O)Nc2cc(C)ccn2)ccc1Cl)c1ccccc1 (configuration not stated),-0.733
12,COc1ccc(-c2nnc(NC(=O)C(C)C)s2)c(OC)c1,-0.0271
13,Cc1ccc(OCC(=O)Nc2oc(-c3ccccc3)c(-c3ccccc3)c2C#N)cc1,-0.212
14,COc1ccc(CCNC(=O)CN(c2ccc(OC)c(OC)c2)S(C)(=O)=O)cc1OC,-0.0449
15,CCOC(=O)c1cccc(NC(=O)CN(c2ccc(OC)cc2)S(=O)(=O)c2c(C)noc2C)c1,-0.74
16,CCOC(=O)Cc1nnc2c(Nc3ccccc3F)nc3nonc3n12,-0.436
17,CCSc1nnc([C@@H]2CCCN2C(=O)OC(C)(C)C)o1,-0.0473
18,COc1ccc(C)cc1NC(=O)CSc1nnc(-c2ccc(OC)c(OC)c2)n1N,-0.0644
19,CCN1C(=O)c2cccc3c(S(=O)(=O)Nc4ccccn4)ccc1c23,0.133
20,CC(Sc1nc2nn(-c3ccccc3)c(=O)c-2c2n1CCCCC2)C(N)=O (configuration not stated),0.141
21,Cc1ccc(-n2c(C)cc(C(=O)CSc3nnc4ccccn34)c2C)cc1,-0.191
22,Cc1ccc(S(=O)(=O)N2CCN(S(=O)(=O)c3ccccc3)C2)cc1,0.146
23,O=C(NCc1cccs1)c1cnn2cccnc12,0.267

row,Structure (SMILES),z-score
1,O=C1CC(Nc2ccccc2)C(=O)N1c1ccc(N2CCOCC2)cc1 (configuration not stated),0.235
2,Cc1cccc(NC(=O)c2ccc([N+](=O)[O-])s2)c1C,-0.0023
3,COc1ccc(CC(=O)NNC(=S)Nc2ccccc2)cc1Br,0.376
4,COc1ccc(C)cc1NC(=O)c1nc2nc(C)cc(C)n2n1,-0.166
5,COc1cccc(-c2ccc(C#N)c(OC(=O)c3ccc(Cl)cc3)n2)c1,0.282
6,CCc1ccccc1NC(=O)c1cccc(Oc2ccc([N+](=O)[O-])cc2Cl)c1,-0.0174
7,O=C(NCCCc1ccccc1)c1ccncc1,0.0631
8,CCCC(C)NS(=O)(=O)c1ccc(OC)c(C)c1 (configuration not stated),0.0199
9,CCCc1cc(C(=O)O)c2ccccc2n1,0.391
10,COc1ccccc1C(=O)NC(C)C(c1cccs1)N1CCN(C)CC1 (configuration not stated),0.707
11,CSc1c(CC(=O)Nc2ccccc2)n(Cc2ccccc2)c2ccccc12,-0.158
12,CN(C)c1oc(COc2ccccc2F)nc1C#N,-0.275
13,COc1ccc(-c2nc(CSCC(=O)N3CCN(C4CCCCC4)CC3)c(C)o2)cc1OC,-0.529
14,COc1ccc(C(=O)Nc2ccc(S(=O)(=O)N3CCCCC3)cc2)cc1,-0.709
15,O=C(CCN1CCN(Cc2ccccc2)CC1)Nc1cccc(Cl)c1,-0.137
16,Cc1ccc(NC(=O)CSc2nn(-c3ccccc3)c(=S)s2)cc1S(=O)(=O)N(C)C,-1.54
17,CCN(CC)C(=O)c1sc2nc(-c3ccncc3)[nH]c(=O)c2c1C,-0.582
18,CN(C)CC(C)(C)CNC(=O)c1cc(=O)c2ccccc2o1,-0.272
19,O=C(NCc1ccco1)c1ccc2c(=O)n(CC3CCCO3)c(=S)[nH]c2c1 (configuration not stated),0.879
20,Cc1csc(NC(=O)c2cc3c(C)nn(Cc4ccccc4Cl)c3s2)n1,-1.61
21,CC(C)CCOc1ccc(C(=O)NCCC(=O)N2CCOCC2)cc1,-0.0354
22,COc1ccccc1NC(=O)NCC(=O)Nc1ccc(F)c(F)c1,0.909
23,CCOc1cccc(C2C(C#N)=C(N)Oc3cc(C)oc(=O)c32)c1OCC (configuration not stated),-0.48

row,Structure (SMILES),z-score
1,Cc1c(C#N)c(N)nc2c3c(sc12)NC(=O)CC3c1ccc(Cl)cc1 (configuration not stated),-1.47
2,CCCCc1cc(=O)oc2c(CN(C)C)c(O)c(Cl)cc12,-0.228
3,NC(=O)/C(=C/c1ccco1)NC(=O)/C=C/c1ccccc1,0.0658
4,N#Cc1cc2c(nc1SCC(=O)Nc1sc3c(c1C#N)CCC3)CCCC2,-0.0894
5,NC(=O)SCC(=O)Nc1cccc(Cl)c1,2.86
6,CCNC(=O)Cn1c(=O)c(=O)n(Cc2ccccc2)c2ccc(Cl)cc21,-0.225
7,Nc1c(NC2CCCCC2)c2ccccc2oc1=O,-0.238
8,O=[N+]([O-])c1ccc(C2CCCC/C2=N\OCc2cccc(F)c2)c([N+](=O)[O-])c1 (configuration not stated),-0.436
9,Cc1ccc(C(c2sc3nc(C)nn3c2O)N2CC(C)OC(C)C2)cc1 (configuration not stated),0.859
10,Cc1ccc(N/C=C(/C#N)c2ccsc2)cc1C,-1.02
11,CCCOc1ccc(-c2nnc(N)s2)cc1,-0.502
12,CCCNC(=O)c1ccccc1NS(=O)(=O)c1ccc(OC)c(OC)c1,-0.122
13,FC(F)(F)c1cnc(NNC(=S)Nc2ccccc2Cl)c(Cl)c1,active: 5.28
14,CNC(=O)CSc1nnc(-c2cc(C)cc(C)c2)o1,0.00701
15,CCCCCCCCC(=O)N/N=C(\C)c1cccnc1,-0.226
16,O=c1cc(-c2cccs2)oc2ccc(Cl)cc12,-0.565
17,C/C(CC1CC(COCC(C)C)OC1=O)=N\Nc1nc(-c2ccccc2)cs1 (configuration not stated),-0.26
18,Cn1c(=O)n(Cc2ccco2)c(=N)c2c3c(sc21)CCC3,-0.795
19,CC1(CCc2ccc3c(c2)OCO3)NC(=O)c2ccccc2N1 (configuration not stated),-0.121
20,CN(C)S(=O)(=O)N(CCN1CCOCC1)Cc1ccccc1F,0.784
21,Cc1sc(-c2ccncc2)nc1OC(=O)c1cc(Cl)cc(Cl)c1,-0.398
22,CN(C)c1ccnc(Oc2ccc(F)cc2)c1C#N,-0.0819
23,Clc1ccc2c(c1)C(c1cccs1)=NNC(c1cccnc1)=N2,-0.47

row,Structure (SMILES),z-score
1,CCOc1cc(/C=C(\C#N)C(N)=O)ccc1OS(=O)(=O)c1ccccc1,-0.457
2,C=CCN1C=C/C(=C\C=C(C#N)C#N)c2ccccc21,-0.0647
3,CCCc1nnc(SCC(=O)N2CCOCC2)n1Cc1ccco1,-0.177
4,CCOC(=O)c1c(CN(CC)CC)oc2ccc(OC)cc12,-0.0412
5,O=C(Nc1ccc(F)cc1F)c1ccco1,-0.0416
6,CCOC(=O)c1cnc2c(Cl)cccc2c1NCCN(C)C,0.313
7,CCCn1c2ccccc2c2nnc(SC(CC)C(=O)Nc3sc4c(c3C#N)CCCC4)nc21 (configuration not stated),0.338
8,Cc1ccc2[nH]c3c(N4CCc5ccccc5C4)ncnc3c2c1,-0.285
9,CCN(Cc1ccccc1)C(=O)c1ccccc1C,0.221
10,COCCn1c(N)c(NCc2ccccc2)c(=O)n(CC(=O)Nc2cc(C)ccc2C)c1=O,0.649
11,CCOC(=O)c1cnc2nc(C(F)(F)F)[nH]n2c1=O,0.532
12,COc1cc(OC)cc(C(=O)N/N=C/c2ccc(OC)c(COc3ccc4ccccc4c3)c2)c1,0.0547
13,Cc1cccc(N2CCN(c3ccc(N4C(=O)CCCC4=O)cc3[N+](=O)[O-])CC2)c1C,0.0766
14,CCOc1cc(N2CCOCC2)c(OCC)cc1NC(=O)COC(=O)CCc1c[nH]c2ccccc12,active: 8.03
15,COc1ccc(C(=O)N2CCCC(c3ccccc3)C2)cc1 (configuration not stated),-0.568
16,Cn1c(C(=O)NCCC2=CCCCC2)cc2c(=O)n3ccccc3nc21,-0.203
17,Clc1ccc(OCCn2ccnc2)c(Cl)c1,0.46
18,COc1ccc(CNC(=O)c2cc3c(=O)n4ccccc4nc3n(Cc3ccco3)c2=N)cc1,0.125
19,COC(=O)C1=C(C)NC(C)=C(C(=O)OC)C1c1ccccn1,-0.0847
20,O=C(CSc1nnnn1-c1ccccc1)N1CCCc2ccccc21,-0.861
